Source: PubChem BioAssay AID2060486 (Molecular Pharmacology Branch, DTP, NCI, 2025)
A number of entries come with more than one value. This list holds those alone. There may be further records. Values that stand side by side are repeated measurements in other runs, samples, wells, individuals or studies. Additions like (4×) say how often a value occurs here.

Tested on: IGROV1 complex spheroids (HUVEC, MSC), viability % test/control
Test: Anticancer human tumor IGROV1 cell line growth inhibition [GQUAD];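 further: spheroids exposed to compounds for 7 days before readout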;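 on viability, T/C: 100% = DMSO vehicle control viability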
Details: for viability, T/C: stronger effect = lower value
From the text: DNA G-quadruplex Stabilizer Agents in Combinations in Complex Spheroids
A high-throughput screen of multi-cell type tumor spheroids was designed to identify active combinations of DNA G-quadruplex stabilizer agents and targeted small molecules. Complex spheroids include a stromal component modeled by human endothelial cells (HUVEC) and fibroblasts modeled by human mesenchymal stem cells (MSCs). The concentration ranges selected for each drug and investigational agent were based upon clinically achievable concentrations if the clinical Cmax of the agent was known.
Compounds. The drugs and investigational agents: pidnarulex (CX-5461; NSC782164), APTO-253 (NSC789042), BRACO-19 (NSC847499), peposertib (NSC802822), ceralasertib (NSC780249), elimusertib (NSC800525), camonsertib (NSC841442), AZD-1390 (NSC803789), olaparib (NSC753686), talazoparib (NSC767125), ART-558 (NSC835418), sotorasib (NSC818433), MRTX-1133 (NSC836407), SN-38 (NSC673596), topotecan (NSC609699), etoposide (NSC141540), doxorubicin (NSC123127), gemcitabine (NSC613327), 5-fluorouracil (NSC19893), paclitaxel (NSC125973), vemurafenib (NSC761431), panobinostat (NSC761190), R-306465 (JNJ-16241199; NSC773264), adavosertib (NSC754352), TP-3654 (NSC805149), carboplatin (NSC241240), KSQ-4279 (NSC840948), and staurosporine (NSC755774) were obtained from the National Cancer Institute (NCI) Developmental Therapeutics Program Chemical Repository (34). The FDA-approved anticancer drug set is available from the NCI Developmental Therapeutics Program. […] The stock solutions were prepared in dimethyl sulfoxide (DMSO, Sigma-Aldrich, St. Louis, MO, cat. D2650) at 800-fold the tested concentration and stored at -70 degrees C prior to their use. All drugs and investigational agents were tested over a range starting from a high concentration at or near the clinical Cmax and decreasing in half-log increments. If the clinical Cmax for an agent had not been determined, the highest concentration tested was 10 microM.
2.3 Cell Culture. All cells were maintained in an incubator at 37 degrees C and 5% CO2 with 95% humidity. […]

SMILES	IC50 (compound alone, run of 03/26/2024)	viability, T/C (compound alone 0.0316 µM)	viability, T/C (compound alone 0.316 µM)
CN(C)c1ccc(Nc2c3ccc(NC(=O)CCN4CCCC4)cc3nc3cc(NC(=O)CCN4CCCC4)ccc23)cc1	> 10 µM, 9.8 µM, 9.19 µM, 9.06 µM, 8.53 µM	–	–
Cc1[nH]c2ccc(F)cc2c1-c1nc2c3cccnc3c3ncccc3c2[nH]1	–	87.6, 109, 86.7 (2×), 94.6, 94.5, 104 (2×), 102, 99.9, 105, 78.3%	86.9, 97.3, 87.8, 92, 105, 96, 80.4, 93.5, 79.2, 87.6, 94.4, 76.3%
